# Assay results published in PubChem BioAssay AID686979 (National Center for Advancing Translational Sciences (NCATS), 2013).
# Several values for one entry are separate records, joined by “and”; a condition that tells them apart may be missing. Equal values may be shown once. Among all 420,000 compounds or so, about 50,000 (12%) were called active. The shares of active, inactive and inconclusive entries below differ from those in the screen. Calls follow the shape of the dose curve; as a rule, active = well fitted inhibition curve with a large enough effect; inconclusive = small, poorly fitted or top-dose-only effect; inactive = flat fitted curve, though single readings scatter. Potencies beside an inconclusive call are fits to weak or partial responses and may not hold up.
# Assay: qHTS for Inhibitors of human tyrosyl-DNA phosphodiesterase 1 (TDP1): qHTS in cells in presence of CPT; also: nearly all actives have a fitted effect of over 55% in size
# Conditions: chicken DT40 Tdp1-/-;hTDP1 cells + 20 nM CPT, ATP luminescence, 48 h; activity change, negative = growth inhibition: at 46.2 µM (top of the series) unless noted
# Method in brief: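 Chicken DT40 Tdp1-/- cells complemented with human TDP1, 400 cells/well, exposed to compounds plus 20 nM camptothecin for at least 48 h at 37 C; viability read as ATP content by CellTiter-Glo luminescence.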
# % is scaled to controls: 0 for no effect and ±100 for the full control effect; potency is read from the fitted curve at half-maximal effect; tags tell the direction and shape of the fitted curve.
SMILES,Potency,"activity change, negative = growth inhibition"
CCCn1cc(S(=O)(=O)c2cc(C)ccc2C)c(=O)c2cc(F)c(N3CCN(CC)CC3)cc21,"inconclusive: 29.1 µM [inhibitor, single point]",
Cc1cccc(C)c1-n1ncc(C(=O)N2CCN(c3ncccn3)CC2)c1C1CCN(C(=O)OC(C)(C)C)CC1,"inconclusive: 5.8 µM [inhibitor, single point]",
O=C(NCCn1cc(SCc2ccccc2F)c2ccccc21)c1c(F)cccc1F,"inconclusive: 25.9 µM [inhibitor, single point]",
CN1CC(=O)N(CC(=O)NCc2ccc3c(c2)OCO3)C1=O,,inactive: -16.5%
CCOC(=O)c1sc(=S)n(-c2cc(F)ccc2F)c1N,"inconclusive: 29.1 µM [inhibitor, single point]",
CCOc1ccc(NC(=O)N2CCC(n3nnc4cc(C)ccc43)CC2)cc1,"inconclusive: 14.6 µM [inhibitor, single point]",
CCc1cc2c(SCC(=O)c3cccs3)ncnc2s1,"inconclusive: 29.1 µM [inhibitor, single point]",
CC(=O)c1ccccc1OC(=O)c1ccc([N+](=O)[O-])o1,"inconclusive: 18.4 µM [inhibitor, single point]",
CCc1cc(C(=O)N/N=C/c2ccc(O)cc2O)c2ccccc2n1,active: 8.2 µM,
N#C/C(=C\c1c[nH]c2ccc(Br)cc12)c1ccccn1,"inconclusive: 29.1 µM [inhibitor, single point]",
COCCCn1c(=O)c2sccc2n2c(CCCC(=O)NC3CCC(C)CC3)nnc12 (stereo not given),"inconclusive: 25.9 µM [inhibitor, single point]",
NC(=O)C1=C[C@@H](c2ccc(Br)cc2)C[C@@H](OCCCCO)O1,,inactive: -2.56%
O=C(Nc1cccc([N+](=O)[O-])c1)c1cccc(C(=O)Nc2cccc([N+](=O)[O-])c2)c1,"inconclusive: 18.4 µM [inhibitor, single point]",
O=C(Nc1ccc2c(c1)CCC2)c1cnn2c1NC(c1ccco1)CC2C(F)(F)F (stereo not given),active: 11.6 µM,
Cc1cccc(NC(=O)C2CCN(S(=O)(=O)c3ccc4c(c3)CCCN4C(=O)C3CCC3)CC2)c1,"inconclusive: 29.1 µM [inhibitor, single point]",
CC(C)NC(=S)N1CCC(Cc2ccccc2)CC1,"inconclusive: 14.6 µM [inhibitor, partial curve]",
COC(=O)N1c2ccccc2C23[C@@H]4CN5CCC[C@]6(CCC12C(O)(C6)C4=O)[C@H]53,,inactive: -14.5% [at 9.04 µM]
CN(C(=O)c1cccc(S(=O)(=O)N2CCCC2)c1)C1CCCCC1,"inconclusive: 29.1 µM [inhibitor, single point]",
COc1ccc(Nc2cc(C)nc3ccc(C)cc23)cc1,"inconclusive: 29.1 µM [inhibitor, single point]",
COc1ccc(NC(=O)CSc2cn(CCNC(=O)c3c(F)cccc3F)c3ccccc23)cc1,"inconclusive: 29.1 µM [inhibitor, single point]",
Cc1ccc2[nH]c(=O)c(CN(CC3CCCO3)C(=S)NCc3ccco3)cc2c1 (stereo not given),"inconclusive: 23.1 µM [inhibitor, single point]",
Cc1ccccc1OCc1nc(C#N)c(N2CCCC2)o1,,inactive: 3.49%

SMILES,Potency,"activity change, negative = growth inhibition"
Cc1cccc(C)c1NC(=O)CNC(=O)CCCc1c[nH]c2ccccc12,"inconclusive: 23.1 µM [inhibitor, partial curve]",
COc1cc(NC(=O)CSc2nc(-c3ccc(C(C)C)cc3)no2)cc(OC)c1,,inactive: -15.5%
COc1ccc(S(=O)(=O)N2CCc3ccccc32)cc1C(=O)Nc1cccnc1,,inactive: 5.85%
CC[C@H](C)Cc1cn([C@@H](CCCCNC(=O)OC(C)(C)C)C(=O)NCCCCCCCCCCC(=O)N2CCN(C(=O)OC(C)(C)C)CC2)nn1,"inconclusive: 23.1 µM [inhibitor, single point]",
Cc1occc1-c1nnc(SCC(=O)N2CCc3ccccc32)o1,active: 16.4 µM,
O=C(NCCc1ccc(C(F)(F)F)cc1)C1CCC(=O)N(CCCc2ccccc2)C1 (stereo not given),"inconclusive: 18.4 µM [inhibitor, single point]",
COc1ccccc1CN(C)C(=O)C1COc2ccccc2O1 (stereo not given),,inconclusive: -32.8% [inhibitor]
COc1ccc(C(=O)N(Cc2ccc(N(C)C)cc2)CC2CCCO2)cc1 (stereo not given),"inconclusive: 16.4 µM [inhibitor, single point]",
O=C(COC(=O)c1ccc(Br)c(S(=O)(=O)N2CCOCC2)c1)NC1CC1,,inactive: 2.54%
CN1CCN(C(=O)C(C(=O)c2ccc(F)cc2)n2ccccc2=O)CC1 (stereo not given),,inactive: -1.98%
COc1ccc(-c2nc(C#N)c(NC(C)c3ccccc3)o2)cc1OC (stereo not given),"inconclusive: 18.4 µM [inhibitor, single point]",
CCc1ccc(NC(=O)C2C3C=CC(C4CC34)C2C(=O)O)cc1 (stereo not given),"inconclusive: 29.1 µM [inhibitor, single point]",
Cc1cccc(N2CCN(C(=O)COc3cccc4c3OC(C)(C)C4)CC2)c1C,"inconclusive: 29.1 µM [inhibitor, single point]",
COc1ccccc1/C=C\C=N\n1c(C2CCCCC2)n[nH]c1=S,"inconclusive: 23.1 µM [inhibitor, partial curve]",
O=C(Nc1ccc([N+](=O)[O-])cc1)C(=O)Nc1cccc(C(=O)O)c1,"inconclusive: 10.3 µM [inhibitor, partial curve]",
N#Cc1cccc(NC(=O)CNC(=O)Cc2ccccc2)c1,,inactive: 11.1%
COCCN(C(=O)c1cccc(-n2cnnn2)c1)c1c(N)n(CC(C)C)c(=O)[nH]c1=O,,inactive: -18%
Cc1ccc(S(=O)(=O)Nc2ccccc2CNc2ccc(Br)cn2)cc1,"inconclusive: 29.1 µM [inhibitor, single point]",
CC(C)CC(=O)Nc1ccnn1C1CCN(C(=O)c2ccc(Cl)cc2F)CC1,"inconclusive: 29.1 µM [inhibitor, partial curve]",
COc1ccc(OC)c(NC(=O)CCNS(=O)(=O)c2ccc3c(c2)CC(C)N3C(C)=O)c1 (stereo not given),,inactive: -29.3%
COc1ccc(-c2onc(C)c2-c2ccc3c(c2)OCCO3)c(O)c1,"inconclusive: 16.4 µM [inhibitor, single point]",
Cc1ccc(NC(=O)CSc2nc3ccc(NC(=O)CCc4ccccc4)cc3s2)cc1,"inconclusive: 7.31 µM [inhibitor, partial curve]",

SMILES,Potency,"activity change, negative = growth inhibition"
CCc1oc(-c2ccc(OC)cc2)c(C(=O)OCCCCCO)c1C(C)OCCO (stereo not given),"inconclusive: 29.1 µM [inhibitor, single point]",
COc1ccc(/C=C/C(=O)Oc2cc(O)cc(O)c2)cc1,,inactive: 6.65%
Cc1ccc(-c2cc(C(=O)N3CCN(c4ccc(O)cc4)CC3)c3ccccc3n2)cc1,"inconclusive: 29.1 µM [inhibitor, single point]",
COc1cc(Cl)c(C)cc1NC(c1ccccc1)c1nnc(-c2ccccc2Cl)o1 (stereo not given),"inconclusive: 29.1 µM [inhibitor, single point]",
COc1ccc(-c2noc(-c3ccc(NC4CCCC4)c([N+](=O)[O-])c3)n2)cc1OC,,inactive: 1.33%
CC[C@@H](C)C(NC(=O)OC(C)(C)C)c1cn([C@@H](Cc2cc3ccccc3[nH]2)C(=O)N2CCN(C(=O)OC(C)(C)C)CC2)nn1 (stereo not given in full),active: 23.1 µM,
Cc1cc(/C=N/NC(=O)CC#N)c(C)n1-c1ccc([N+](=O)[O-])cc1,"inconclusive: 20.6 µM [inhibitor, single point]",
CCc1c(C)sc2nc(C(C)C)nc(SCC(=O)N3CCc4ccccc4C3)c12,"inconclusive: 16.4 µM [inhibitor, single point]",
Cc1ccc(CNC(=O)c2cc3ccc4cccnc4c3[nH]2)cc1,"inconclusive: 20.6 µM [inhibitor, single point]",
COc1ccc(CN2CCCC(CO)(Cc3ccc(F)cc3F)C2)cc1 (stereo not given),"inconclusive: 25.9 µM [inhibitor, single point]",
Cc1coc2c(C)c3oc(=O)c(CCC(=O)N4CCC(C(=O)NCCCC(=O)O)(c5ccccc5)CC4)c(C)c3cc12,,inactive: -8.19%
Cc1ccc(C)c(N2CCN(S(=O)(=O)c3cn(C)c(C)n3)CC2)c1,,inconclusive: -32.2% [inhibitor]
COc1ccc(C2=Nc3ccc(OC(F)(F)F)cc3NC(c3cccnc3)=N2)cc1,active: 10.3 µM,
COc1ccc(Cc2c(-c3ccc(C)cc3)nc3ccc(Cl)cn23)c(C)c1,active: 23.1 µM,
CC(C)C1=NN(C(=O)c2ccccc2)C(O)(C(C)(C)C)C1 (stereo not given),"inconclusive: 29.1 µM [inhibitor, single point]",
CCOc1ccc(C(Nc2cccnc2)c2cc(Cl)c3cccnc3c2O)cc1 (stereo not given),"inconclusive: 25.1 µM [inhibitor, single point] and inconclusive: 20.6 µM [inhibitor, single point]",
Cc1cc(Cl)c2oc(C(=O)N(C)CCc3cnn(C)c3)c(C)c2c1,active: 18.4 µM,
CSc1nsc(SCC(=O)Nc2ccc(OC(C)=O)cc2)n1,"inconclusive: 29.1 µM [inhibitor, single point]",
CCC(C)n1c(=N)c(C(=O)NC2CCCCC2)cc2c(=O)n3ccccc3nc21 (stereo not given),"inconclusive: 25.9 µM [inhibitor, single point]",
CCOC(=O)c1c(NC(=O)CSc2nc3ccc(C)cc3[nH]2)sc2c1CC(C)(C)NC2(C)C,"inconclusive: 25.9 µM [inhibitor, single point]",
COC(=O)c1ccccc1COc1cccn2c(N(C)Cc3cccs3)c(C)nc12,"inconclusive: 29.1 µM [inhibitor, single point]",
